Marks after values point to notes of the source that are not given here.
Tests used:
human PDGF-BB = human PDGF-BB (Homo sapiens, UniProt P01127); conditions: 1 nM PDGF-BB, PDGF-AB & PDGF-AB/BB (3:1); anti-PDGF-B antibodies at 60 seconds
monocrotaline rats [1] = assay: 4 weeks Monocrotaline PAH rats, preventive treatment (Example 10 study 1); type: in vivo, rat
Method: (§1) Six to seven weeks old male Sprague Dawley rats were used. Rats were separated into treatment groups such that body weights were similar among different groups. […] Standard of care group was orally administered macitentan at 30 mg/kg daily for 28 days. At day one, rats were subcutaneously administered either 40 mg/kg of monocrotaline or 5 mL/kg of saline. By the end of day 28, right ventricular systolic pressure (RVSP) was measured by right heart catheterization and RV hypertrophy was calculated by Fulton index as the weight ratio of RV and (LV+septum). In study 2, rats were subcutaneously administered either 60 mg/kg of monocrotaline or 5 mL/kg of saline. […] Body weight change from day 0-35 were used for general toxicity assessment and animal mortality was calculated by day 35.
Rats were anesthetized with isoflurane and were kept at approximately 37° C. using a heated platform (Heated Hard Pad 1, Braintree Scientific) and circulating heated water pump (T/Pump Classic, Gaymar Industries). The neck area for each rat was prepared for surgery by depilating over the right common Carotid artery and right Jugular vein. An incision was made and the right Jugular vein was isolated with care as to not damage the Carotid artery and/or the Vagus nerve. […] The catheter was connected to pressure/volume instrument (MPVS-300, Millar Instruments, Inc.) that measured heart rate as well as both diastolic and systolic right ventricular pressures. […] Readings were quantified from a 60 second interval of the pressure tracing (following a 2 minute period of recording to allow for pressure stabilization). The parameters analyzed were right ventricular systolic pressures (RVSP), heart rate (HR) and rate of right ventricular pressure rise (dP/dt max).
After the in vivo hemodynamic measurements, animals were euthanized by exsanguinations under anesthesia and then RV free wall, left ventricle (LV) and septum tissue were harvested and weighted. RV hypertrophy was calculated by Fulton index as the weight ratio of RV and (LV+septum). […]

monocrotaline rats [2] = assay: 5 weeks Monocrotaline severe PAH rats survival, therapeutic treatment (Example 10 study 2); type: in vivo, rat
Method: as §1, with “used.” for “used. Rats were separated into treatment groups such that body weights were similar among different groups.”

monocrotaline rats [3] = assay: Study #2, 5 weeks Monocrotaline severe PAH rats survival (Example 19); type: in vivo, rat
Method: In order to evaluate the effect of two inhibitory anti-PDGF-B antibodies in the rat monocrotaline model of pulmonary arterial hypertension, 2 studies were performed: study #1 was performed on 4-week Monocrotaline PAH Rats with Preventive Drug Treatment; and study #2 was performed on 5-weeks Monocrotaline Severe PAH Rats Survival with Therapeutic Drug Treatment (Tables 26-27).
Six to seven weeks old male Sprague Dawley rats were used. Rats were separated into treatment groups such that body weights were similar among different groups. […] On day one, rats were subcutaneously administered either 40 mg/kg of monocrotaline or 5 mL/kg or saline as control. On day 28, right ventricular systolic pressure (RVSP) was measured by right heart catheterization and RV hypertrophy was calculated by Fulton index as the weight ratio of RV to (LV+septum). In study #2, rats were subcutaneously administered either 60 mg/kg of monocrotaline or 5 mL/kg of saline. […] Small molecule group was orally administered macitentan at 30 mg/kg daily. Body weight change from day 0-35 were used for general toxicity assessment and animal mortality and median survival time were calculated by day 35.

[4] = Monocrotaline Rat - Prevention, dose mg/kg: H4H13145P 25, Macitentan 30, Sotatercept 25
[5] = MCT 60 mg/kg rats, treatment from day 14, antibody SC twice per week, Macitentan 30 mg/kg daily gavage

human PDGF-BB, sequence (P01127 82-190 limits assumed): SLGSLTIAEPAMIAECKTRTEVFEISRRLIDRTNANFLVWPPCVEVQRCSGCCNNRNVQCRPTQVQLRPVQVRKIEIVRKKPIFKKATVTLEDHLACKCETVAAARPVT

B1: H4H13145P: fully human anti-PDGF-B mAb, human IgG4 Fc; HCVR/LCVR SEQ ID NOs: 2/10, HC/LC 18/20 (antibody)
heavy: QVQLVQSGTEVKKPGASVKVSCKASGYTYGAYAISWVRQAPGQGLEWMGWISAYNGNTNYAQKFQDRVTMTTDTSTNTAYMELRGLKSDDTAVYFCARAWNSFDYWGQGTLVTVSSASTKGPSVFPLAPCSRSTSESTAALGCLVKDYFPEPVTVSWNSGALTSGVHTFPAVLQSSGLYSLSSVVTVPSSSLGTKTYTCNVDHKPSNTKVDKRV[human IgG4 Fc with S228P (EU numbers) left out here]
light: DIQMTQSPSSLSASVGDRVTITCQASQDIRKNLNWYQQKPGKAPKLLISDASTLETGVPSRFSGSGSGTDFTFTISSLQPEDIAKYYCQQYYNLPFTFGPGTKVDIKRTVAAPSVFIFPPSDEQLKSGTASVVCLLNNFYPREAKVQWKVDNALQSGNSQESVTEQDSKDSTYSLSSTLTLSKADYEKHKVYACEVTHQGLSSPVTKSFNRGEC
- inhibition of PDGF mediated calcium flux in words (human PDGF-BB): complete inhibition
- % reduction in RV hypertrophy (monocrotaline rats [1]; [4]): 50-60%
- Reduction in RVSP (monocrotaline rats [1]; [4]): 14 mmHg
- right ventricular systolic pressure elevation (monocrotaline rats [1]; monocrotaline 40 mg/kg, antibody 25 mg/kg SC 2x/week, Macitentan 30 mg/kg P.O. daily, week 4): significantly reduced
- Mortality (monocrotaline rats [2]; high dose Monocrotaline Rat-Therapeutic, 25 mg/kg, printed as change from 91%): 91%-−>58%
- animal body weight loss (monocrotaline rats [2]; monocrotaline 60 mg/kg, 25 mg/kg SC 2x/week from day 14): significantly attenuated
- Death # by day 35 (monocrotaline rats [3]; [5]): 6
- Survival rate by day 35 (monocrotaline rats [3]; [5]): 50%*#
- median survival (monocrotaline rats [3]; [5]): 34 days
- survival (monocrotaline rats [3]; monocrotaline 60 mg/kg, antibody 25 mg/kg 2 times a week from day 14, macitentan 30 mg/kg daily, day 35): significantly prolonged the survival time and improved mortality

Reference: US20240425574A1, “ANTI-PDGF-B ANTIBODIES AND PHARMACEUTICAL COMPOSITION THEREOF” (Regeneron Pharmaceuticals, Inc., priority 2021, published 2024)
